Among the data in paper PMC12136788 are binding signal values, retold here.

To fix the notation:
T1: UNK ZnF1-3 (human, UniProt Q9C0B0 31-174)
T1 sequence: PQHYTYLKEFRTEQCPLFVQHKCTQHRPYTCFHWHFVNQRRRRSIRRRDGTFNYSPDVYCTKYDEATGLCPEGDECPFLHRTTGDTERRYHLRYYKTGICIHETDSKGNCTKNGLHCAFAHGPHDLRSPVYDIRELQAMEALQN

B1: chr3:138341159:138341160:+_ENSG00000158234_ENST00000393035|hu_hu|motif|central (ssRNA)
RNA: GGGAGUUCUACAGUCCGACGAUCGAGACUUUUCCCAUUAAUUUCCAGAGUAUAUUCAUAAGCAAAACCACUGAUAGCGUCGGUAUUUAUGGUCGCUUUUGUCUUUGCAGCUCCAACAUAGAAUGUUUCUUUGCCCACUAAUUUCAACAGAGGAUUGAGCAUCA
B2: chr1:27731043:27731044:-_ENSG00000158195_ENST00000430629|hu_mus|FALSE|FALSE (ssRNA)
RNA: GGGAGUUCUACAGUCCGACGAUCCAGGUCCCACCUCCCAACCUUUGGGAAGAAAGGGUCUAUUUUUAGACAGUAUUCCCUCUAUGCAUUAGCUAGCAGAAAUCUUGAUAUGGGAAACACCAAGAGCCUAUUGGAAUAGGUCCUCAACAGAGGAUUGAGCAUCA
B3: chr12:77883889:77883890:+_ENSMUSG00000090258_ENSMUST00000041262|mus_mus|FALSE|FALSE (ssRNA)
RNA: GGGAGUUCUACAGUCCGACGAUCGAAGAGCAGUCGGGUGCUCUUACCCACUGAGCCAUCUCACCAGCCCUAGGCUUGCUCUAUUUUAAAGCAAGCCAACACAGUUACAAGAGAACCAUGGGAGGCUUAGAACAGCAGAGUCAUCAACAGAGGAUUGAGCAUCA
B4: chr11:106647441:106647442:-_ENSMUSG00000020719_ENSMUST00000021062|mus_mus|motif|central (ssRNA)
RNA: GGGAGUUCUACAGUCCGACGAUCUAUGUGUACAAUGGCAGGCAGCAAAUAAGAUAAUGUUUUCCCAGAUCCAGUCUGAGCGGCUCCAACCAUAUCCAAUCCACUGAGAGCAACUGGCCAGCCCUGAGCUUGAAUAGCAGUGGGCAACAGAGGAUUGAGCAUCA
B5: chr3:41417089:41417090:+_ENSMUSG00000025764_ENSMUST00000026865|mus_mus|motif|central (ssRNA)
RNA: GGGAGUUCUACAGUCCGACGAUCAACCAAGGAAGUGCCCAUUUGUUUCCUGAAGAAUGCAGAAUGCCAUUUCAAGUCCUCGGUCUUGGGAGCAUUGGGGCCCACAGAAGGACUGUUGAAAAAAAGCAUGUUCUCCAGUGCGGACAACAGAGGAUUGAGCAUCA
B6: chrX:50293416:50293417:+_ENSMUSG00000025626_ENSMUST00000078944|mus_mus|FALSE|FALSE (ssRNA)
RNA: GGGAGUUCUACAGUCCGACGAUCUUUCUUCUUAGUCUUUGGAGAUGAGGGCUCCAGUUCAUGCUCAUUAAAACUUUCUUCUAAAUCAGCUUCCGAGUUAUGUGCAGUUUUCUUGUGUUUUCGACAAUAAACCAUGUAAAUCCCCAACAGAGGAUUGAGCAUCA
B7: chrX:71549400:71549401:+_ENSMUSG00000019087_ENSMUST00000019231|mus_hu|mus_mus_mus_hu_False|1_88 (ssRNA)
RNA: GGGAGUUCUACAGUCCGACGAUCGCAGUAGGAAGAGGGAAGCUCUUCAUCCACUGUCGCUGCAGGGUGGGAAAGCAACAACACGGACACCGUCCCACCCUCAACCCCCCCACUGGCACAGGGUCACACAAUCUGGGAAGUGAUCAACAGAGGAUUGAGCAUCA
B8: chr5:37680062:37680063:+_ENSMUSG00000029121_ENSMUST00000031004|mus_hu|mus_mus_mus_hu_False|18_28 (ssRNA)
RNA: GGGAGUUCUACAGUCCGACGAUCUUUGGGUGUAGCUGGUACCUCGUACACAGGACCGUCAUACAUGCCCCUGGAAACCCCUUGCAAUCCAAAAACCUUAUUCCUGAUCCUGACACGCUGGUAGAGAUGCUCCGGGAACGCCUUCAACAGAGGAUUGAGCAUCA
B9: chr18:24770415:24770416:+_ENSMUSG00000024271_ENSMUST00000025120|mus_mus|motif|central (ssRNA)
RNA: GGGAGUUCUACAGUCCGACGAUCACAAACAGGUCCUUCAUGGCCUUGGAGACGGACUGAUUUUAAAACCUGAUUAUUCUCGGGUUCCCAAUGAAUCACCCGAUUGUCAGAUCCUCCAGACACCAGCUCAUUGGAAGGGGAGCCCAACAGAGGAUUGAGCAUCA
B10: 141322406_141322605_2024_CDS_ENSMUSG00000040697_ENSMUST00000038014|mouse|control|control (ssRNA)
RNA: GGGAGUUCUACAGUCCGACGAUCCUCUUUGGUGAAGCUCGGCUCAGUCUUCCCAGCCUUCUCGGGGACUUCCUCUUUGUCUGCAGGGUGCGACUCUCGCUCCUCAUUUGAGUCACUGAAAGCCUGGACCAUGACCGUGCCGAACAACAGAGGAUUGAGCAUCA
B11: 151328270_151343212_477_3pUTR_ENSG00000115963_ENST00000263895|human|control|control (ssRNA)
RNA: GGGAGUUCUACAGUCCGACGAUCUUCCACUUUUUGAGGACACUGUCCAGGGUCUCUGGUCUACUGAUGUCAAAGCAAAUCAGCACAGCAUCCGAAUCAGGGUAAGAGAGGGGGCGGACAUUGUCAUAGUAAGGAGAACCCGAACAACAGAGGAUUGAGCAUCA
B12: chr8:11781157:11781158:+_ENSMUSG00000031511_ENSMUST00000110909|mus_hu|FALSE|FALSE (ssRNA)
RNA: GGGAGUUCUACAGUCCGACGAUCUAAGGAACUGAGGACCUUGUUAAAAUUCUGCCCCUGAUACAAAUCAUUUGCAUCAAACGUCUCCAGCCGCAGGGAAGCCCCGCAGCCGCGCAGGAACUCGCGGAUGUUGCUCAGGCACUCCAACAGAGGAUUGAGCAUCA
B13: chr1:66480114:66480115:+_ENSMUSG00000015222_ENSMUST00000024639|mus_mus|FALSE|FALSE (ssRNA)
RNA: GGGAGUUCUACAGUCCGACGAUCUGGCCUGUGACGGAUGUUCUUUAGAGAGCCACAUUUGGAUGUCACAUGGCUUAAGUCUAUCUUCUUAGUAACAAUUUGUACCUGACCCCCCUUAGGCUGGUAUUUGAUGUUGUCAGUUGACAACAGAGGAUUGAGCAUCA
B14: 75205495_75208088_1911_CDS_ENSG00000129657_ENST00000413679|human|control|control (ssRNA)
RNA: GGGAGUUCUACAGUCCGACGAUCGCACACGUCGAAAUCCCAAGUGAUGACUGACGAGGCAUCCACAAUCUGAAUGAGAAUCUCAUGUGGGGCUCCUUUGAAGACGCUUGCAGACUGGUAGAUGGUCUCAGUCCAGAGCUUCAGCAACAGAGGAUUGAGCAUCA

The other results are listed elsewhere or left out.

This experiment has as its target T1, UNK ZnF1-3. Briefly: nsRBNS (natural sequence RNA bind-n-seq); RBNS binding buffer (assumed for nsRBNS): 25 mM Tris pH 7.5, 150 mM KCl, 3 mM MgCl2, 0.01% Triton X-100, 500 ug/ml BSA, 20 U/ml SUPERase-In, 4 C; UNK is unkempt and MSI1 is Musashi-1; names of the RNAs are library labels; protein concentration not given here; high values mean tight binding.
The molecule B1 returned a binding signal of 0.915 enrichment R.

For the molecule B2, the binding signal was found to be 0.86 enrichment R.

As for B3, the binding signal stood at 1.36 enrichment R.

For the molecule B4, the binding signal came out at 1.71 enrichment R.

On to B5, for which the binding signal turned out to be 1.44 enrichment R.

Molecule B6 registered a binding signal of 0.697 enrichment R.

As to B7, the binding signal turned out to be 0.829 enrichment R.

As for B8, the binding signal worked out at 0.928 enrichment R.

B9 gave a binding signal of 1.17 enrichment R.

Turning to B10, the binding signal was found to be 0.503 enrichment R.

B11 had a binding signal of 1.43 enrichment R.

Take B12: the binding signal turned out to be 0.885 enrichment R.

In turn, B13 showed a binding signal of 0.553 enrichment R.

The molecule B14 returned a binding signal of 1.18 enrichment R.
